# According to patent publication US20230321261A1, “AXL-SPECIFIC ANTIBODY-DRUG CONJUGATES FOR CANCER TREATMENT” (GENMAB A/S, priority 2016, published 2023):
# B1: IgG1-AXL-061: AXL-specific human IgG1,κ antibody, VH SEQ ID NO:143, VL SEQ ID NO:144, Ig1 domain binding (antibody, listed as Homo sapiens, V domains shown)
# VH: QVQLVQSGAEVKKPGASVKVSCKASGYAFTGYGISWVRQAPGQGLEWIGWISAYNGNTNYVQNLQDRVTMTTDTSTSTAYMELRSLRSDDTAVYYCARDHISMLRGIIIRNYWGQGTLVTVSS
# VL: [skipping about 100 residues]
# B2: IgG1-AXL-061-vcMMAE (conjugate)
# VH: B1 VH
# VL: [skipping about 100 residues]
# How the values were obtained:
# AXL on A431 cells = target: T1, AXL on A431 cells (Homo sapiens, UniProt P30530); test: Antibody binding to A431 cells with or without Gas6 pre-incubation
# T1 construct: AXL-positive A431 cells were incubated; endogenous in cells; host or cells: A431
# [1] = target: T2, Gas6 binding to AXL on A431 cells (Homo sapiens, UniProt P30530); test: Gas6 binding to A431 cells pre-incubated with AXL antibodies
# T2 construct: endogenous in cells; host or cells: A431
# Description: Alternatively, A431 cells were pre-incubated with 10 µg/mL AXL antibodies (15 minutes, 4° C.) to assess if the AXL ligand Gas6 could still bind in presence of AXL antibodies. […] After washing three times in PBS/0.1% BSA/0.02% azide, cells were incubated with mouse anti-Gas6 IgG2a (R&D Systems; cat no. MAB885) at 4° C. for 30 min. After washing three times in PBS/0.1% BSA/0.02% azide, cells were incubated with FITC-labelled goat anti-mouse IgG (Dako, Heverlee, Belgium; cat no. F049702) at 4° C. for 30 min in the dark. Next, cells were washed twice in PBS/0.1% BSA/0.02% azide, resuspended in 120 µL PBS/0.1% BSA/0.02% azide and analyzed on a FACS Cantoll (BD Biosciences).
# Binding curves were analyzed using non-linear regression (sigmoidal dose-response with variable slope) using GraphPad Prism V5.04 software (GraphPad Software, San Diego, CA, USA).
# Therefore, binding of Gas6 to A431 cells that had been pre-incubated with 10 µg/mL AXL antibodies was tested as described in Example 2.
# [2] = target: T3, human-mouse chimeric AXL mutants (Homo sapiens, UniProt P30530, A273L/A287V/A310S/E275K/E281D/G297E/H300L/L233V/M269V/N230H/P276S/P329T/Q227R/Q272W/R229H/S285L/S298K/S319P/T259N/T312S/V309I); test: AXL domain specificity using human-mouse AXL chimeric molecules (flow cytometry); format: binding; settings: 1 µg/mL antibody
# T3 construct: constructs for expression of various full-length AXL variants were generated; expressed in transfected cells; host or cells: HEK293F
# [3] = target: T4, human-mouse chimeric AXL mutants (Homo sapiens, UniProt P30530, A151P/A183V/D170T/D266N/G187S/H193Q/P184T/P188S/R148K/R190H/T149A/T182P/V194T); test: as above; format: binding; settings: 1 µg/mL antibody
# T4 construct: constructs for expression of various full-length AXL variants were generated; expressed in transfected cells; host or cells: HEK293F
# [4] = target: T5, human-mouse chimeric AXL mutants (Homo sapiens, UniProt P30530, D266N/D95E/E92W/F120H/G122E/H123G/H68V/I97K/L118M/Q114E/Q124R/Q57E/S106A/S81N/T105S/T112A/Y132F); test: as above; format: binding; settings: 1 µg/mL antibody
# T5 construct: constructs for expression of various full-length AXL variants were generated; expressed in transfected cells; host or cells: HEK293F
# [5] = target: T6, human-mouse chimeric AXL mutants (Homo sapiens, UniProt P30530, A349V/A358V/A407T/A411S/A425P/A431G/C405S/D266N/F350L/G397R/H352R/I340V/K439S/P444R/Q372R/Q387R/Q394R/Q436H/R386T/S398P/S400A/S442P/T343M/T443P/V434L); test: as above; format: binding; settings: 1 µg/mL antibody
# T6 construct: constructs for expression of various full-length AXL variants were generated; expressed in transfected cells; host or cells: HEK293F
# [6] = tested on: LCLC-103H xenograft tumors; test: LCLC-103H xenograft model; format: in vivo, SCID mice; settings: 3 mg/kg (Example 13, FIG. 14A)
# Description: 5 × 10^6 LCLC-103H (large cell lung carcinoma) tumor cells (obtained from Leibniz-Institut DSMZ-Deutsche Sammlung von Mikroorganismen und Zellkulturen GmbH (DSMZ)) in 200 µL PBS were injected subcutaneously in the right flank of female SCID mice. Starting 14-21 days after tumor cell inoculation, when the average tumor size was >100-200 mm^3 and distinct tumor growth was observed, a single injection with 1 mg/kg (20 µg/mouse) IgG1-AXL-vcMMAE antibodies (as described in Supplementary Example 1) or control (unconjugated IgG1-b12) was given intraperitoneally (100 µL/mouse). Tumor volume was determined at least two times per week. Tumor volumes (mm^3) were calculated from caliper (PLEXX) measurements as: 0.52 × (length) × (width)^2.
# Tumor induction was performed by subcutaneous injection of 5 × 10^6 A431 or LCLC-103H tumor cells (both obtained from Leibniz-Institut - Deutsche Sammlung von Mikroorganismen und Zellkulturen GmbH (DSMZ)) in 200 µL PBS in the right flank of female SCID mice. Treatment was started 14-21 days after tumor cell inoculation, when the average tumor size was >100-200 mm^3 and distinct tumor growth was observed. […] Tumor volume was determined at least two times per week. Tumor volumes (mm^3) were calculated from caliper (PLEXX) measurements as: 0.52 × (length) × (width)^2.
# A431 tumors = test: A431 xenograft model (high Gas6); format: in vivo, SCID mice; settings: 3 mg/kg
# Description: Tumor induction was performed by subcutaneous injection of 5 × 10^6 A431 or LCLC-103H tumor cells (both obtained from Leibniz-Institut - Deutsche Sammlung von Mikroorganismen und Zellkulturen GmbH (DSMZ)) in 200 µL PBS in the right flank of female SCID mice. Treatment was started 14-21 days after tumor cell inoculation, when the average tumor size was >100-200 mm^3 and distinct tumor growth was observed. Mice received a single injection or a total of 4 biweekly intraperitoneal injections with IgG1-AXL-vcMMAE ADCs or control antibody (unconjugated IgG1-b12), as indicated. Tumor volume was determined at least two times per week. Tumor volumes (mm^3) were calculated from caliper (PLEXX) measurements as: 0.52 × (length) × (width)^2.
Molecule,Antibody binding to A431 cells: Maximal binding in presence of Gas6 (% of binding in absence of Gas6) mean (s.d.) (AXL on A431 cells; pre-incubation with 10 µg/mL Gas6),Antibody binding to A431 cells: EC50 w/o Gas6 (µg/mL) mean (s.d.) (AXL on A431 cells; without Gas6 pre-incubation),"binding of Gas6 to A431 cells pre-incubated with antibody, compared to IgG1-b12 and medium controls ([1]; 10 µg/mL antibody)","Gas6 binding to A431 cells: Maximal binding in presence of AXL antibodies (% of binding in presence of control antibody) mean (s.d.) ([1]; pre-incubation with 10 µg/mL antibody, control antibody b12)",binding to hsAXL-mmFN1 [2],binding to hsAXL-mmIg2 [3],binding to hsAXL-mmIg1 [4],binding to hsAXL-mmFN2 [5],anti-tumor activity in the LCLC-103H xenograft model [6],anti-tumor activity in the A431 xenograft model (A431 tumors)
B1,43 (28) %,0.15 (n.a.) µg/mL,largely reduced,22 (8) %,not affected,not affected,strongly reduced binding,not affected,–,–
B2,–,–,–,–,–,–,–,–,tumor regression,did not show anti-tumor activity
